Experimental data published in PubChem BioAssay AID1956 (SRMLSC, 2009).
Some of the results follow. Shown are side measurements of this screen, not its main read-out; they come without a call.

assay: enhancers of HSV replication in host cells, fold increase, host cell viability (AID 1956); conditions: HSV replication augmentation in cells; fold increase: measured here: primary screen fold increase 10 uM, at 10 µM, stronger effect = higher value; viability: measured here: host cell viability series, at 25 µM, stronger effect = lower value; note: tested in PC3 cells

SMILES | fold increase | viability [%]
O=C1c2ccccc2S(=O)(=O)N1CC(O)Cn1ccc2ccccc21 (stereo unspecified) | 2.39 | 107
O=C(N[C@@H](Cc1ccccc1)C(=O)OCc1ccccc1)c1nc[nH]c1C(=O)N1CCc2ccccc2C1 | 1.32 | 
CCc1ccc(NCc2cc3c(C)nn(-c4ccccc4)c3[nH]c2=O)cc1 | 1.33 | 89.5
Nc1c(C(=O)O)ccc2c1C(=O)c1ccccc1C2=O | 1.32 | 90.3
N#C/C(=C\c1ccc(O)cc1)c1nc2ccccc2o1 | 3.72 | 89.3
N#C/C(C(=O)NCc1ccccc1)=C1/N=C(NC(=O)c2cccs2)c2ccccc21 | 1.32 | 
CCNc1nc(NCC)n2c(SC(C)C(=O)c3ccc(C)cc3)nnc2n1 (stereo unspecified) | 1.36 | 86.9
CCCn1c(=O)c(C(=O)c2ccccc2)nc2ccccc21 | 1.34 | 93.5
C#CCN1C(=O)S/C(=C/C=C/c2ccc(N(C)C)cc2)C1=O | 3.17 | 
N=C1/C(=C\c2ccc(SCc3ccco3)o2)C(=O)N=C2SC=NN12 | 1.84 | 98.7
Cc1ccc(C(=O)NCc2n[nH]c(=S)n2-c2ccccc2)cc1[N+](=O)[O-] | 1.34 | 92.1
CN1/C(=C\C=C(/C#N)C(=O)Nc2ccc(Cl)cc2)C(C)(C)c2ccccc21 | 1.5 | 
NS(=O)(=O)c1cccc(NC(=O)CN2CCc3ccccc32)c1 | 1.64 | 96.9
CC(=O)c1cccc2c(O)c(C3=Nc4ccccc4C3=O)[nH]c12 | 1.4 | 
CC(NC(=O)C(c1ccccc1)c1ccccc1)C(=O)N1CCCCC1 (stereo unspecified) | 1.32 | 
CCC(CC)C(=O)Nc1ccc(Sc2ccc([N+](=O)[O-])cc2)cc1 | 1.33 | 87.1
NCCc1nnc(SCC(=O)c2ccc(Cl)cc2)o1 | 1.33 | 93.9
COc1cc(C=C2C(=O)c3ccccc3C2=O)cc(OC)c1OC | 1.84 | 93.7
CC(C)C1OC2(C)OC(=N)C1(C#N)C(C#N)(C#N)C2c1ccccc1 (stereo unspecified) | 1.84 | 
O=[N+]([O-])c1ccc(N/N=C/c2ccc(OCc3cccc4ccccc34)cc2)nc1 | 1.37 | 
CC(=O)N1c2ccc3ccccc3c2C2C=CCC2C1c1ccc(Br)cc1 (stereo unspecified) | 1.92 | 46.6
COc1ccc(CNC(=O)C(c2ccco2)N(C(=O)Cc2cccs2)c2cccnc2)cc1 (stereo unspecified) | 1.32 | 
O=C(O)CSCC(=O)N1CCCN(c2nc3ccc(Cl)cc3s2)CC1 | 1.34 | 93.9
c1csc(C2Nc3cccc4cccc(c34)N2)c1 | 1.24 | 

SMILES | fold increase | viability [%]
Cc1cc2n(n1)C(c1ccccc1)CC(c1ccc(Br)cc1)=N2 (stereo unspecified) | 1.77 | 88.4
N#CCSc1nc2c(c(=O)n1Cc1ccccc1)C1(CCCC1)Cc1ccccc1-2 | 1.2 | 
COc1ccc(C2CC(c3ccc(Cl)c(Cl)c3)Nc3nc(N)nn32)cc1 (stereo unspecified) | 1.47 | 34
CN(C)C(=O)Nc1ccccc1 | 1.34 | 102
COCCCn1c(=O)/c(=C\c2ccc(OC(F)F)c(OC)c2)s/c1=C(/C#N)C(=O)NCCOC | 1.66 | 94.4
CCCN1C=CC(=CC=C(C#N)C#N)C=C1 | 2.45 | 95.5
CCCCNc1ccc2c3c(cccc13)C(=O)N(CCCC)C2=O | 7.6 | 79
COc1cc(/C=C2\SC(=Nc3ccc(O)cc3)NC2=O)cc(OC)c1O | 4.69 | 74.9
CCOC(=O)C1CCCN(CC(=O)NC2CC2)C1 (stereo unspecified) | 1.4 | 95.2
Cc1cc[n+](-c2nc3ccccc3nc2[N-]S(=O)(=O)c2ccccc2)cc1 | 1.39 | 96.9
C=CCOC(=O)C1=C(C)NC(SCC(=O)Nc2ccc(C)c(Cl)c2)=C(C#N)C1c1ccco1 (stereo unspecified) | 1.56 | 
CN(C)S(=O)(=O)c1ccc(Cl)c(NC(=O)COC(=O)CCC(=O)c2cccs2)c1 | 1.36 | 93.3
O=[N+]([O-])c1ccc(-c2nc(-c3cccs3)c(-c3cccs3)[nH]2)cc1 | 1.19 | 77.7
COc1ccc(N2CCN(C(=O)Cc3ccc(S(=O)(=O)N4CCOCC4)s3)CC2)cc1 | 1.33 | 93.3
CC(C)C1Nc2ccc(C(=O)O)cc2C2C=CCC21 (stereo unspecified) | 1.42 | 105
CCOC(=O)/C(=C/C=C1\Sc2ccccc2N1CC)C(C)=O | 5.19 | 83.2
Cc1ccc(S(=O)(=O)N(C(=O)c2ccncc2)c2ccc(OC(=O)c3ccncc3)c3ccccc23)cc1 | 1.75 | 24.6
CCOC(=O)Cc1csc(NC(=O)c2sc3nc4c(C)cc(C)cc4cc3c2N)n1 | 2.53 | 98.9
CC[n+]1ccccc1/C=C/c1ccc(N(C)C)cc1 | 1.86 | 36.4
CCn1c(C)[n+](CC)c2ccc(S(=O)(=O)N(C)C)cc21 | 1.47 | 104
Cc1c(C(=O)/C=C/N(C)C)nnn1-c1ccc(F)c(Cl)c1 | 1.36 | 103
CCOC(=O)C1CCN(C(=O)CSc2cc(=O)n(CC)c3ccccc23)CC1 | 1.32 | 95.1
CC(=O)/C(C#N)=C1\NC(=O)C(Cc2ccc(C)c(Cl)c2)S1 (stereo unspecified) | 1.88 | 87.8
COc1ccnc(NCc2cccnc2)c1C#N | 1.37 | 100

SMILES | fold increase | viability [%]
Nc1nc(SCC(=O)Nc2ccccc2)nc2nc3c(cc12)CCCC3 | 1.32 | 
CCN(CC)S(=O)(=O)c1ccc2c(c1)nc(CCC(=O)OCC(=O)N1CCc3ccccc31)n2C | 1.16 | 
CN(C)/C=C(\C=O)c1ncc(C(F)(F)F)cc1Cl | 1.39 | 98.7
C=CCN1C(=O)c2cccc3c(N4CCCCC4)ccc(c23)C1=O | 8.38 | 
C=CCn1c(=O)[nH]c2nc3cc(N=CN(C)C)c(C)cc3nc2c1=O | 3.95 | 95.6
N#C/C(=C/c1ccco1)c1nc2ccccc2s1 | 1.51 | 88.5
N=C1/C(=C\c2coc3ccccc3c2=O)C(=O)N=C2SC=CN12 | 1.85 | 98.6
Cc1ccc(C)c(-n2c(CNc3ccc(F)cc3)nnc2SCC(N)=O)c1 | 1.36 | 98.2
C[n+]1cc(C(=O)N2CCCCC2)ccc1/C=C/c1c[nH]c2ccccc12 | 3.22 | 
COc1ccc(NC(=O)Cn2c(=O)c(C)nc3ccccc32)cc1Cl | 1.32 | 
CN(C)c1ccc(/C=C/C(=O)c2cccc(Br)c2)cc1 | 2.33 | 79.6
O=C(c1cc(COc2ccc3ncccc3c2)on1)N1CCC(O)CC1 | 1.5 | 63.2
CC1=CC2=NC(=O)/C(=C/c3coc4ccccc4c3=O)C(=N)N2O1 | 1.97 | 92.3
CCCCCCn1c(=O)[nH]c2nc3cc(N)c(C)cc3nc2c1=O | 6.65 | 
C=CCSc1nc(N)c(C#N)c(-c2ccccc2)c1C#N | 1.78 | 94.3
CCOc1ccccc1-c1cc(C(=O)N/N=C/c2ccc3c(c2)OCO3)c2ccccc2n1 | 1.13 | 
Cc1ccc(N=Cc2nc(/C=C/c3cccc([N+](=O)[O-])c3)oc2O)cc1 | 1.6 | 104
Cc1ccc(-n2nc(C)c3c(C)cc(=O)[nH]c32)cc1 | 1.35 | 96.6
Cc1ccc(-c2cc(-c3ccco3)c3c(N)c(C(=O)NN)oc3n2)cc1 | 1.64 | 91.8
CCOC(=O)C1=C(O)/C(=C\c2ccc(CNS(=O)(=O)c3ccc(Br)cc3)o2)N=C1C | 1.35 | 100
Cc1cc2oc3c(c(=O)c2cc1C)C(c1cccc(Br)c1)N(Cc1ccco1)C3=O (stereo unspecified) | 1.29 | 
C=CCNC(=S)Nc1ccc2nc(C)oc2c1 | 1.35 | 91.1
O=c1c(O)c(-c2cccs2)oc2ccccc12 | 5.2 | 101
CCOC(=O)c1c(-c2ccc(OC)cc2)csc1/N=C/C1C(=O)CCCC1=O | 1.46 | 97.8

SMILES | fold increase | viability [%]
N#Cc1cc(C(=O)c2cc(F)ccc2O)cn(-c2nccs2)c1=O | 3.05 | 
CCOCCCn1c(SCC(=O)/C(C#N)=C(\C)N)nc2ccccc2c1=O | 1.34 | 104
CCCCC1OC23CCCCC2C(C#N)(C#N)C1(C#N)C(=N)O3 (stereo unspecified) | 1.94 | 104
CC1=NN(c2ccccc2)C(=O)/C1=C\C=C1\N(C)c2ccccc2C1(C)C | 1.37 | 93.6
O=C1NC(=Nc2ccccc2)/C(=C/c2ccco2)S1 | 1.95 | 90.4
O=C(NC(Cc1ccccc1)C(=O)Oc1ccc2c(C(F)(F)F)cc(=O)oc2c1)OCc1ccccc1 (stereo unspecified) | 1.79 | 100
COc1ccc(OC2C(=O)N(CCc3ccc(OC)c(OC)c3)C2c2ccc3c(c2)OCO3)cc1 (stereo unspecified) | 1.23 | 
Cc1cc(/C=C2\Sc3ccccc3N2C)cc(C)[n+]1CC1CCCO1 (stereo unspecified) | 1.47 | 44
Oc1c(C=Nc2ccc(Cl)cn2)sc2ccccc12 | 1.51 | 91.9
COc1ccc(/C=C/C(=O)c2cc(F)ccc2OC(=O)c2ccccc2)cc1OC | 1.07 | 
C=CCc1c(C)c(C#N)c2nc3ccccc3n2c1N1CCCCC1 | 1.36 | 93.9
Cc1c(NC(=O)COC(=O)c2cc(-c3cccc4ccccc34)nc3ccccc23)c(=O)n(-c2ccccc2)n1C | 2.09 | 97.7
CC(C)CC(NC(=O)c1ccco1)C(=O)Nc1ccc2c(c1)OCCO2 (stereo unspecified) | 1.36 | 96.4
COc1cccc(C(=O)NC(=S)Nc2ccc3oc(=O)ccc3c2)c1 | 1.38 | 
NC(=O)c1c(NC(=O)C2c3ccccc3Oc3ccccc32)sc2c1CCCCC2 | 1.34 | 96.1
COC(=O)c1ccc(NC(=O)CCN2C(=O)CSC2=O)cc1 | 1.43 | 94.2
C[n+]1cccc2cccc([O-])c21 | 1.35 | 94.7
O=C1/C(=C\c2ccc(O)cc2)SC(=S)N1/N=C/c1ccc(O)cc1 | 7.29 | 99.6
Cn1c(Cn2c(=O)sc3ccccc32)nnc1SCC(=O)Nc1ccccc1 | 1.33 | 99.2
CCOC(=O)N1CCN(C(=O)C2CC(c3ccccc3OC)=NO2)CC1 (stereo unspecified) | 1.62 | 97.8
O=C(Cc1ccc(S(=O)(=O)N2CCCC2)s1)N1CCN(c2ccccc2)CC1 | 1.94 | 101
COc1cc(/C=C2\S/C(=N/S(=O)(=O)Cc3ccccc3)NC2=O)c([N+](=O)[O-])cc1OC | 1.33 | 104
COc1ccc(-c2ccc3c(N)c(C(=O)c4cccc(OC)c4)sc3n2)cc1 | 1.66 | 92.8
